Molecules are shown by their SMILES. Among all 52,000 compounds or so, about 4,300 (8.3%) were called active. No stated cut-off is given here; in the data, active means survival mostly below about 52% (no sharp cut-off); inactive means mostly above about 56%. The list shows a part of the results.

This test has as its system DeltatarO mutant. Briefly: S. aureus survival, RN4220 and DeltatarO strains – OD600, teichoic acid synthesis inhibitors, primary screen (AID 463173). Conditions: S. aureus RN4220 wild type/DeltatarO growth, OD600, 18 h, stronger effect = lower value, screened at 18.75 µg/mL (by protocol).
Regarding `Cc1ccc(CCNS(=O)(=O)c2ccc3c(c2)CCN3C(=O)CCC(=O)O)cc1`, the survival is inactive: 122%.

For `CCc1ccc(NC(=O)CCc2c(C)n(C)c3cc(-c4ccccc4C)nn3c2=O)cc1`, the survival is inactive: 55%.

`Cc1cccc(N2CCN(C(=O)CCCn3ncn4c(cc5occc54)c3=O)CC2)c1C`: the survival was inactive: 58%.

For `Cn1c(=O)n(C)c2cc(N3CCOCC3)c(NS(=O)(=O)c3ccc(Br)cc3)cc21`, the survival is inactive: 74%.

For the molecule `CCOc1cc(CNCCSc2nnnn2C)cc(Cl)c1OCc1ccc(Cl)cc1`, the survival is active: 2%.

On to `CCC1SC(=NC(=O)c2cccs2)NC1=O` (stereo not given), for which the survival was inactive: 84%.

For `O=C(NCC(c1cccnc1)N1CCc2ccccc2C1)C(=O)Nc1cccc(Cl)c1` (stereo not given), the survival was inactive: 54%.

With `COc1ccc(-c2cc(C(=O)NCCc3ccccc3)c3c(-c4ccccc4)[nH]nc3n2)cc1`, the survival was inactive: 87%.

As for `O=C(Cc1ccc(F)cc1)Nc1cccc(-c2nc3cccnc3s2)c1`, the survival was inactive: 95%.

With `CCc1nn(CC(=O)NCCCN2CCN(C)CC2)c(=O)c2cc3occc3n12`, the survival is inactive: 124%.

For `COc1ccc(C(=O)c2c(N)c(-c3nc(-c4ccccc4)cs3)c3ccccn23)cc1`, the survival is inactive: 62%.

Take `COC(=O)c1c(NC(=O)COc2ccc(Cl)cc2C)sc2c1CCCCC2`: the survival is inactive: 68%.

On to `COc1ccc(OC)c(NC(=O)CSC2=Nc3ccccc3C3=NC(CCC(=O)NC4CCCCC4)C(=O)N23)c1` (stereo not given), for which the survival is inactive: 67%.

`CSc1cccc(NC(=O)CC(c2ccc(F)cc2)N2Cc3ccccc3C2=O)c1` (stereo not given): the survival is inactive: 69%.

With `COc1ccc(C)cc1NC(=O)c1oc2ccc(S(=O)(=O)N3CCOCC3)cc2c1C`, the survival is inactive: 90%.

As for `O=C(CSc1nnc(-c2ccco2)o1)NC(c1ccccc1)c1ccccc1`, the survival was active: 61%.

Take `CC(=O)N1CCc2c(sc3c2c(=O)n(-c2ccccc2)c(=O)n3Cc2cccc(C(F)(F)F)c2)C1`: the survival is inactive: 111%.

With `Cc1ccc(/C=C/c2nc3ccccc3n2S(=O)(=O)c2ccc(Br)cc2)cc1`, the survival is inactive: 75%.

As to `COc1ccc(N2CCN(C(=O)CCc3c(C)nc4cc(-c5cccc(F)c5)nn4c3C)CC2)cc1`, the survival was inactive: 67%.

As to `COc1cccc(N=C2SC(C(=O)Nc3cccc(Cl)c3)CC(=O)N2C)c1` (stereo not given), the survival is inactive: 46%.

As to `CCOC(=O)c1cnc2c(ccc3ccccc32)c1Nc1ccc(OC)cc1OC`, the survival is active: 8%.

Take `O=C(NC1CCCCC1)N1CCN(c2ccccn2)CC1`: the survival was inactive: 94%.

In the case of `COc1ccc(CNS(=O)(=O)c2ccc(F)c(C(=O)Nc3c(C)cc(C)cc3C)c2)cc1`, the survival was inactive: 85%.

Consider `CCOC(=O)c1cc(-c2ccc(OC)cc2)n(CCC(=O)Nc2cccc(C(C)=O)c2)c1C`, for which the survival was inactive: 64%.

For `Cc1cc2oc(C(=O)Nc3sc4c(c3C(=O)NCc3ccccc3)CCCC4)cc(=O)c2cc1C`, the survival was active: 39%.

For `COc1cccc(-c2nc3c(c(SCc4ccccc4Cl)n2)Cc2c(CO)cnc(C)c2O3)c1`, the survival is inactive: 83%.

As to `CCc1ccc(C(=O)CSc2nc(-c3ccccc3)nc3c2CCCC3)cc1`, the survival is inactive: 60%.

Take `Cc1ccc(CNC(=O)CN2C(=O)CSc3ccc(S(=O)(=O)N4CCCC4)cc32)cc1`: the survival is inactive: 69%.

On to `O=C(NCCn1cnc2cccnc21)N(c1ccccc1)c1ccccc1`, for which the survival was inactive: 97%.

In the case of `COc1ccc2nc3sc(C(=O)N4CCN(c5ccc(F)cc5)CC4)cc3cc2c1`, the survival is inactive: 93%.

On to `Cc1ccc(C)c(N2CCN(S(=O)(=O)c3ccc4c(c3)CCCN4C(=O)C3CCC3)CC2)c1`, for which the survival was inactive: 78%.

Turning to `O=C(CN1C(=O)C2(SCC(=O)N2c2ccccc2)c2ccccc21)NCCc1ccccc1` (stereo not given), the survival was inactive: 116%.

As for `Cc1cn2c(=O)cc(COC(=O)c3ccccc3F)nc2s1`, the survival was inactive: 79%.

For the molecule `Cc1ccc(CNS(=O)(=O)c2cc3c(cc2C)N(C)CCO3)cc1`, the survival was inactive: 88%.

For the molecule `CCc1ccc(NC(=O)CSc2nc3c(sc4ccccc43)c(=O)n2CCN(CC)CC)cc1`, the survival was inactive: 102%.

Take `COc1cc(C)ccc1OCCSc1nc2ccc(NC(=O)c3cccs3)cc2s1`: the survival is inactive: 72%.

Consider `Cc1ccc(C(=O)Nc2ccccc2C(=O)OCc2cc(=O)n3nc(C4CC4)sc3n2)cc1`, for which the survival was inactive: 85%.

As for `CCCN(CCC)C(=O)C1CCCN(c2ncnc3onc(-c4ccc(F)cc4)c23)C1` (stereo not given), the survival is inactive: 90%.

Regarding `Cc1ccc(CSCCC(=O)N2CCN(c3cc(C)ccc3C)CC2)cc1`, the survival was inactive: 77%.

As for `CCC(C)NC(=O)CSc1nnc(-c2ccc(C)cc2)c(-c2ccc(C)cc2)n1` (stereo not given), the survival was inactive: 83%.

Turning to `COCCCNC(=O)c1sc2nc(C)c(C(=O)Nc3ccc(C)cc3C)c(-c3ccc(Br)cc3)c2c1N`, the survival was inactive: 70%.

Take `COc1ccc(-c2noc(CN(C(=O)Cc3ccc(C)cc3)C(C)C)n2)cc1`: the survival was active: 16%.

`CCOC(=O)c1cc2occc2n1CC`: the survival is inactive: 98%.

Take `COc1cccc(CNC(=O)C2CCN(C(=O)c3sccc3-n3cccc3)CC2)c1`: the survival is inactive: 83%.

For the molecule `O=C(NCCCO)C(=O)Nc1c2c(nn1-c1ccccc1)CSC2`, the survival is inactive: 77%.

In the case of `CCCN(CCC)C(=O)c1cn(CC)c2ccc(S(=O)(=O)N3CCCCC3)cc2c1=O`, the survival is inactive: 126%.

As for `CCC(CC)C(=O)NCc1nc2cccnc2n1Cc1ccc(F)cc1`, the survival is inactive: 66%.

With `COC(=O)C1CC23C=CNC4CCC5(c6ccccc6NC15C2C)C43` (stereo not given), the survival was inactive: 91%.

Take `Cc1ccccc1CNC(=O)c1cc2cccc3c2n1CC(C)S3` (stereo not given): the survival is inactive: 92%.

For the molecule `O=C(Nc1cccc(Cl)c1)c1cc(S(=O)(=O)N2CCCc3ccccc32)ccc1F`, the survival is inactive: 108%.

Take `CCOc1cc(C2CC(=O)Nc3c2c(=O)nc(SCc2cccc(Cl)c2)n3C)ccc1O` (stereo not given): the survival was inactive: 44%.

For the molecule `COc1ccc(-c2cc(C(=O)Nc3sc4c(c3C(N)=O)CCC(C)C4)no2)cc1` (stereo not given), the survival was inactive: 168%.

On to `Cc1ccc(S(=O)(=O)C(CNC(=O)COc2ccc(Cl)cc2)c2ccco2)cc1` (stereo not given), for which the survival is inactive: 108%.

In the case of `CCOc1ccc(-c2nnc(SCC(=O)c3ccc(F)cc3)n2-c2ccccc2)cc1`, the survival is inactive: 168%.

With `CCOC(=O)c1cc(C(C)(C)C)oc1CN`, the survival is inactive: 92%.

As for `CC(=O)Nc1cccc(NC(=O)CSc2nccn2Cc2ccco2)c1`, the survival is inactive: 83%.

For `Cc1cc(C)cc(NC(=O)CCCc2nnc3n(CC(C)C)c(=O)c4sccc4n23)c1`, the survival is inactive: 103%.

For `Cc1ccc(NC(=O)c2ccc3c(c2)NC(=O)c2ccccc2S3)cc1`, the survival was inactive: 108%.

`CCN(CC)CCCNC(=O)C(=O)Nc1ccc2nc3n(c(=O)c2c1)CCCCC3`: the survival is inactive: 91%.

Consider `COc1ccc(/C=C/C(=O)Nc2ccc(Cl)cc2Cl)cc1`, for which the survival was inactive: 86%.

With `Cc1ccc(Cn2ccnc2SCC(=O)Nc2ccc3c(c2)OCCO3)cc1`, the survival was inactive: 78%.

As for `CCCCNC(=O)c1cc(-c2ccc(Cl)c(Cl)c2)on1`, the survival was active: 45%.

As to `NS(=O)(=O)c1ccc(NC(=O)CN2CCN(c3ccc(F)cc3)CC2)cc1`, the survival was inactive: 70%.

As to `Cc1cccn2c(=O)cc(COc3ccc(NC(=O)C(C)Oc4ccccc4)cc3)nc12` (stereo not given), the survival is inactive: 88%.

For the molecule `COc1ccc(-n2c(SCC(=O)NC3CCCCC3)nc3c([nH]c4ccccc43)c2=O)cc1`, the survival was active: 37%.

Take `Cc1ccc(Cl)cc1-n1ncc2c(NCCC3=CCCCC3)ncnc21`: the survival was inactive: 91%.

On to `Fc1ccccc1N1CCN(c2ncnc3onc(-c4cccc(Cl)c4)c23)CC1`, for which the survival is inactive: 53%.

As to `CCOC(=O)c1[nH]cnc1C(=O)NC1CCCCC1`, the survival was inactive: 80%.

Consider `Cc1c(NC(=O)Nc2ccc(Cl)c(C(F)(F)F)c2)c(=O)n(-c2ccccc2)n1C`, for which the survival is inactive: 124%.

Take `CC(=O)Nc1ccc(NC(=O)c2nc(SCc3ccccc3C)ncc2Cl)cc1`: the survival is inactive: 73%.

Turning to `COc1cccc(OCc2cc(=O)n3cc(C)sc3n2)c1`, the survival is active: 40%.

Turning to `COc1ccccc1CNC(=O)C(=O)NCC(c1cccnc1)N1CCN(c2ccc(F)cc2)CC1` (stereo not given), the survival was inactive: 71%.

On to `CCOc1ccc(CCNC(=O)CN2C(=O)COc3ccc(S(=O)(=O)N(CC)CC)cc32)cc1`, for which the survival was inactive: 109%.

For `O=S(=O)(c1cccc2nsnc12)N1CCOCC1`, the survival was inactive: 91%.

Take `Cc1ccc(-c2nc(S(=O)(=O)c3ccc(C)cc3)c(N3CCCCC3)o2)cc1`: the survival was active: 0%.

For `COc1nc(C)ccc1-c1noc(-c2ccccc2)n1`, the survival was inactive: 102%.

Consider `O=C(Nc1ccc2nc(SCC(=O)N3CCCC3)sc2c1)c1cccc(F)c1`, for which the survival is inactive: 65%.

On to `CCc1ccc(-n2c(=O)c3ccc(C(=O)NCCc4ccccc4)cc3n(Cc3ccccc3C#N)c2=O)cc1`, for which the survival is inactive: 127%.

In the case of `COC(=O)c1c(-c2cccs2)csc1NC(=O)c1ccc(C(C)(C)C)cc1`, the survival was inactive: 83%.

Turning to `CSc1ccc(C2c3[nH]c4ccccc4c3CCN2C(=O)CCC2CCCC2)cc1` (stereo not given), the survival was inactive: 74%.

As for `COc1ccccc1NC(=O)COC(=O)CC(C)(C)CC1=NS(=O)(=O)c2ccccc2N1`, the survival is active: -1%.

For `COc1ccc2c(CNCc3ccco3)c(C(=O)O)n(Cc3ccccc3)c2c1`, the survival was inactive: 78%.

In the case of `CC1CCc2c(sc3nc(SCC(=O)Nc4c[nH]c(=O)[nH]c4=O)[nH]c(=O)c23)C1` (stereo not given), the survival is inactive: 90%.

For the molecule `COc1ccc(Cl)cc1NC(=O)Cn1nnc(C(=O)NCc2cccs2)c1N`, the survival is inactive: 69%.

`COc1cccc(N2CC(NC(=O)C3CCCC3)CC2=O)c1` (stereo not given): the survival was active: 46%.

Consider `COc1ccc(N2CCN(C(=O)c3c4c(nc5ccccc35)C(=O)N(C3CCCCC3)C4)CC2)cc1`, for which the survival is inactive: 124%.

Consider `COCCNC(=O)Cn1cc2c(n1)-c1c(oc(C(=O)N3CCCC3)c1C)CC2`, for which the survival was inactive: 82%.

As to `Cc1cc(N2CCOCC2)nc([S+]2CCCC2)n1`, the survival was inactive: 94%.

For `NC(=O)Cn1c(=O)n(CCCCCC(=O)NCc2ccccc2Cl)c(=O)c2sccc21`, the survival was inactive: 101%.

In the case of `COC(=O)c1c(-c2cccs2)csc1NC(=O)COc1ccccc1`, the survival was inactive: 78%.

The values are drawn from PubChem BioAssay AID463173 (ICCB-Longwood Screening Facility, Harvard Medical School, 2010).
